Measured values taken from the RNAGym collection of RNA variant scans (doi:10.1073/pnas.2313332121).
Variants at the floor of the assay are shown more often than the library holds them.

B1: TPR 5TU (parent)
chain: GGAUCUUCUCGAUCUAACAAAAAAGACAAAUCUGCCACAAAGCUUGAGAGCAUCUUCGGAUGCAGAGGCGGCAGCCUUCGGUGGCGCGAUAGCGCCAACGUUCUCAACUAUGACACGCAAAACGCGUGCUCCGUUGAAUGGAGUUUAUCAUG

Variants of: B1
Test: polymerase ribozyme fitness, log enrichment relative to wild type (log ratio); higher = more active; in vitro selection for triplet polymerase activity
In short: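 Mutant libraries for each subunit of a heterodimeric triplet polymerase ribozyme were made by PCR and then transcribed. Each library underwent one round of in vitro selection in triplicate: annealing with a biotinylated primer, the partner subunit and triplets, frozen incubation at −7 °C, gel excision of extended constructs, streptavidin-bead capture and RT-PCR. Input and output libraries were Illumina-sequenced, and only genotypes with ≥10 input reads and ≥1 read per output were kept. Fitness is the logarithm, base 2, of genotype enrichment over wild-type enrichment, computed from inverse-variance-weighted replicate averages.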
For A28U U31G C51U U78A, the “polymerase ribozyme fitness (log ratio)” value was at most -4.2. For A28U U33G C43G A47C U55G U56A G84A C87G A106G A107C G133U G140U, the “polymerase ribozyme fitness (log ratio)” value was at most -4.2. For A28U U44A C87G A106C, the “polymerase ribozyme fitness (log ratio)” value was at most -4.2. With A28U U44A U61A G86U A122U U135G U139G the “polymerase ribozyme fitness (log ratio)” value was at most -4.2. For A28U U45A C57U A60C G84U A98U G117C, the “polymerase ribozyme fitness (log ratio)” value was at most -4.2. With A28U U45A U55A U56A A73U G86C U139G the “polymerase ribozyme fitness (log ratio)” value was at most -4.2. In the case of A28U U53A A73U A120U G128C U130A, the “polymerase ribozyme fitness (log ratio)” value is reported as at most -4.2. With A28U U53A C57U A91U C95U the “polymerase ribozyme fitness (log ratio)” value was at most -4.2. With A28U U53A C57U G92U A122G the “polymerase ribozyme fitness (log ratio)” value was at most -4.2. For A28U U53A C105U A115G A142C U151G G152C, the “polymerase ribozyme fitness (log ratio)” value was at most -4.2. In the case of A28U U53A C116G G124U, the “polymerase ribozyme fitness (log ratio)” value is reported as at most -4.2. With A28U U53A G58A C95U C114U the “polymerase ribozyme fitness (log ratio)” value was at most -4.2. For A28U U53A G92U U104A, the “polymerase ribozyme fitness (log ratio)” value was at most -4.2. For A28U U53G A91U G143C, the “polymerase ribozyme fitness (log ratio)” value was at most -4.2. With A28U U55G A110C A121U C149A the “polymerase ribozyme fitness (log ratio)” value was at most -4.2. In the case of A28U U55G G81U C95A, the “polymerase ribozyme fitness (log ratio)” value is reported as at most -4.2. With A28U U56A C69A U82A A89G C96U C105U G140U the “polymerase ribozyme fitness (log ratio)” value was at most -4.2. With A28U U56A C95U A98U G133A the “polymerase ribozyme fitness (log ratio)” value was at most -4.2. With A28U U56A G59C U61G G70A A119C U139C the “polymerase ribozyme fitness (log ratio)” value was at most -4.2. In the case of A28U U77A C87U A106G U135G, the “polymerase ribozyme fitness (log ratio)” value is reported as at most -4.2. For A28U U148A, the “polymerase ribozyme fitness (log ratio)” value was at most -4.2. In the case of A29C A37C A64G C87A C95G U146G, the “polymerase ribozyme fitness (log ratio)” value is reported as at most -4.2. With A29C A37C C69A A106C C108A U148A the “polymerase ribozyme fitness (log ratio)” value was at most -4.2. With A29C A37C G86A the “polymerase ribozyme fitness (log ratio)” value was at most -4.2. With A29C A37G A47G A52C G140U the “polymerase ribozyme fitness (log ratio)” value was at most -4.2. In the case of A29C A37G G65C C75G U77A A97G C118U C123U, the “polymerase ribozyme fitness (log ratio)” value is reported as at most -4.2. For A29C A39G U139A, the “polymerase ribozyme fitness (log ratio)” value was at most -4.2. In the case of A29C A40G C54G C76A C85U A107G C123U U145A, the “polymerase ribozyme fitness (log ratio)” value is reported as at most -4.2. For A29C A40U G50A A89U C96G A107U U146C A147C, the “polymerase ribozyme fitness (log ratio)” value was at most -4.2. With A29C A41C C85U A113G the “polymerase ribozyme fitness (log ratio)” value was at most -4.2. With A29C A41C G58A C75A C79U G83A the “polymerase ribozyme fitness (log ratio)” value was at most -4.2. In the case of A29C A41C G81A C129A, the “polymerase ribozyme fitness (log ratio)” value is reported as at most -4.2. With A29C A41G A122G G143A the “polymerase ribozyme fitness (log ratio)” value was at most -4.2. For A29C A41G U53A A150C, the “polymerase ribozyme fitness (log ratio)” value was at most -4.2. For A29C A41U C85U C93G G136A G140U, the “polymerase ribozyme fitness (log ratio)” value was at most -4.2. For A29C A47G C69A G83U G84A C114A, the “polymerase ribozyme fitness (log ratio)” value was at most -4.2. For A29C A47U A49U C99G G126A, the “polymerase ribozyme fitness (log ratio)” value was at most -4.2. In the case of A29C A47U C76G C79A A97U C99A C125G U134A U144G, the “polymerase ribozyme fitness (log ratio)” value is reported as at most -4.2. With A29C A47U C79G C95A C99U the “polymerase ribozyme fitness (log ratio)” value was at most -4.2. In the case of A29C A49C C76U G80C C99G C116U A119C, the “polymerase ribozyme fitness (log ratio)” value is reported as at most -4.2. In the case of A29C A49C G74U C95G C118U A150G G152U, the “polymerase ribozyme fitness (log ratio)” value is reported as at most -4.2. In the case of A29C A49C U61A A138C, the “polymerase ribozyme fitness (log ratio)” value is reported as at most -4.2. For A29C A49G C69G U77G C79U C116U U146A, the “polymerase ribozyme fitness (log ratio)” value was at most -4.2. For A29C A52C C54U U82C U90A G136A, the “polymerase ribozyme fitness (log ratio)” value was at most -4.2. For A29C A52C G83C U90C C95A A97U A98G U139A, the “polymerase ribozyme fitness (log ratio)” value was at most -4.2. For A29C A52U G92C C103U C116G G124A, the “polymerase ribozyme fitness (log ratio)” value was at most -4.2. With A29C A66C G80A A110U A147C the “polymerase ribozyme fitness (log ratio)” value was at most -4.2. In the case of A29C A73C G83A U135G, the “polymerase ribozyme fitness (log ratio)” value is reported as at most -4.2. For A29C A91C C93A G117U U145A, the “polymerase ribozyme fitness (log ratio)” value was at most -4.2. For A29C C32G A41G G48U G140A G141C, the “polymerase ribozyme fitness (log ratio)” value was at most -4.2. In the case of A29C C32G C87G C95A C114U C123U, the “polymerase ribozyme fitness (log ratio)” value is reported as at most -4.2. For A29C C35G C54A A73U G86U U148C, the “polymerase ribozyme fitness (log ratio)” value was at most -4.2. For A29C C35U A91G G94A C114A U146A, the “polymerase ribozyme fitness (log ratio)” value was at most -4.2. For A29C C36G U78C C93G A97G, the “polymerase ribozyme fitness (log ratio)” value was at most -4.2. In the case of A29C C38G G46C C79U G124A U130G U135G G140C, the “polymerase ribozyme fitness (log ratio)” value is reported as at most -4.2. For A29C C38G U55A C75U U82C C105U, the “polymerase ribozyme fitness (log ratio)” value was at most -4.2. For A29C C43A G136C, the “polymerase ribozyme fitness (log ratio)” value was at most -4.2. With A29C C43U G71U U101A G126A U139C the “polymerase ribozyme fitness (log ratio)” value was at most -4.2. For A29C C51A G65A G71A U78A, the “polymerase ribozyme fitness (log ratio)” value was at most -4.2. In the case of A29C C51U G83C C95U A137G G143C, the “polymerase ribozyme fitness (log ratio)” value is reported as at most -4.2. In the case of A29C C54A C57U C76G C79G G94A, the “polymerase ribozyme fitness (log ratio)” value is reported as at most -4.2. In the case of A29C C54A C75A G141C G143C, the “polymerase ribozyme fitness (log ratio)” value is reported as at most -4.2. With A29C C54G C93G A98G A107C G124A the “polymerase ribozyme fitness (log ratio)” value was at most -4.2. For A29C C54U C85G, the “polymerase ribozyme fitness (log ratio)” value was at most -4.2. In the case of A29C C57A A60U A66G C95A A110C C114U, the “polymerase ribozyme fitness (log ratio)” value is reported as at most -4.2. For A29C C57G A66C C96G C125A C132G, the “polymerase ribozyme fitness (log ratio)” value was at most -4.2. In the case of A29C C57G G128C, the “polymerase ribozyme fitness (log ratio)” value is reported as at most -4.2. In the case of A29C C57U U61A G92U U102G, the “polymerase ribozyme fitness (log ratio)” value is reported as at most -4.2. For A29C C75U C79A G92U A150G, the “polymerase ribozyme fitness (log ratio)” value was at most -4.2. With A29C C76A C87A C99U C105U the “polymerase ribozyme fitness (log ratio)” value was at most -4.2. In the case of A29C C76A G88C C95G, the “polymerase ribozyme fitness (log ratio)” value is reported as at most -4.2. In the case of A29C C79G C116G, the “polymerase ribozyme fitness (log ratio)” value is reported as at most -4.2. In the case of A29C C85A, the “polymerase ribozyme fitness (log ratio)” value is reported as at most -4.2. With A29C C85U the “polymerase ribozyme fitness (log ratio)” value was -3.79. With A29C C87A A115U A142C the “polymerase ribozyme fitness (log ratio)” value was at most -4.2. For A29C C95G, the “polymerase ribozyme fitness (log ratio)” value was at most -4.2. With A29C C95G A138G A147C the “polymerase ribozyme fitness (log ratio)” value was at most -4.2. In the case of A29C C96U A106U U111C U144G, the “polymerase ribozyme fitness (log ratio)” value is reported as at most -4.2. For A29C C105G, the “polymerase ribozyme fitness (log ratio)” value was at most -4.2. For A29C G34U U53A C87G C123A G143A U146C, the “polymerase ribozyme fitness (log ratio)” value was at most -4.2. With A29C G46A C75G C108U U111G U146G the “polymerase ribozyme fitness (log ratio)” value was at most -4.2. With A29C G46A U61G G92C the “polymerase ribozyme fitness (log ratio)” value was at most -4.2. With A29C G46U C87A G126C the “polymerase ribozyme fitness (log ratio)” value was at most -4.2.
